Among the data in paper PMC6722706 are binding values, retold here.

By UniProt entry, the sequences of proteins in these tests, tags left out. Where a name states a change or a piece, a line headed by the entry shows the natural chain unless it says otherwise. Chains listed by the source or under a name are the forms on record and can include a tag or linker.
UniProt P35372: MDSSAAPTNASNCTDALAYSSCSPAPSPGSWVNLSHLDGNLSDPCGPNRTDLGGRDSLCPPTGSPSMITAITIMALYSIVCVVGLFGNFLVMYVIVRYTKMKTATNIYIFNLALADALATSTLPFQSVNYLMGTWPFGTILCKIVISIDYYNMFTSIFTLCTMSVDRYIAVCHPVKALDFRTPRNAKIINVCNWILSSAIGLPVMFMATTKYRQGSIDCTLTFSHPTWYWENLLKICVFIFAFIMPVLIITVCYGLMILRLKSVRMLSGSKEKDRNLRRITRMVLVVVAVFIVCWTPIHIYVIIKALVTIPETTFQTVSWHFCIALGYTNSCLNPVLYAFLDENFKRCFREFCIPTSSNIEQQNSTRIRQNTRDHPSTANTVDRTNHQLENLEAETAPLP
UniProt P14416: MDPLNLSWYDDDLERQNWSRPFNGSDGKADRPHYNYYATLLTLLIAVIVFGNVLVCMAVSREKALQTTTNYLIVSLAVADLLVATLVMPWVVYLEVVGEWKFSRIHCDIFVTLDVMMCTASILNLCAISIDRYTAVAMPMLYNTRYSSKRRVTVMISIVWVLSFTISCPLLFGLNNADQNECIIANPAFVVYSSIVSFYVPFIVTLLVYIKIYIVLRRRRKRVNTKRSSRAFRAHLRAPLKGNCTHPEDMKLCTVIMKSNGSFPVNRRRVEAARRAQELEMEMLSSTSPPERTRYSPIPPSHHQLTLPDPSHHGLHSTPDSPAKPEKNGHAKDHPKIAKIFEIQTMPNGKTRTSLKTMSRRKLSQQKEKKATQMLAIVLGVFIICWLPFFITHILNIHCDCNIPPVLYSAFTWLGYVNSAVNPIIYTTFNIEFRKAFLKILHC
FLAG-D2SR (P14416, form named): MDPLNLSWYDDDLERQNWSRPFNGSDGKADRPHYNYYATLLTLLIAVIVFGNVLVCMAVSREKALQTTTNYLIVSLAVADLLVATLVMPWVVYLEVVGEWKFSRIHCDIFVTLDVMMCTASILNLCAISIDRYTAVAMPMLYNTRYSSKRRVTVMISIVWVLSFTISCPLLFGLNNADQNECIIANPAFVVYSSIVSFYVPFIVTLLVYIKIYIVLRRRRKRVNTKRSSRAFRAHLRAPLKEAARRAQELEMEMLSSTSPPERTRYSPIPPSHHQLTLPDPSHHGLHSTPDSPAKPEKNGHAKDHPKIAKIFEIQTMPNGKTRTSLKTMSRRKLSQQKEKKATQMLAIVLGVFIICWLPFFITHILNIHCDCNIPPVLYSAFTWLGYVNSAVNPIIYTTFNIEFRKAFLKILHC

In assay [1] the target is MOR-RLuc (UniProt P35372). The assay is described as follows: FRET or BRET; saturation BRET1 in living HEK 293T cells; fixed amount of RLuc donor plasmid, increasing amounts of YFP acceptor plasmid; 5 µM h-coelenterazine; ratio 530/480 nm, corrected for donor alone. For orientation: In BRET a luciferase serves as donor, and the signal depends on an acceptor being close.
Assay [2] has as its target HA-tagged D2LR (UniProt P14416). Nature of the assay: condition: only lysates of cells transfected with the individual receptors alone, mixed after lysis; co-IP; control: lysates of cells transfected with the individual receptors alone were mixed and processed as per the co-IP protocol.
The target is the same in assay [3]. Nature of the assay: co-IP; HEK 293T cells cotransfected with HA-D2LR (or FLAG-D2SR) and MOR-YFP; RIPA lysates (250 mM NaCl, 50 mM Tris/HCl pH 7.5, 1% NP-40, 0.1% SDS, 0.5% deoxycholic acid); IP with mouse anti-HA or anti-FLAG M2 and Protein A Trisacryl beads at 4 °C; blot with anti-GFP.
The target of assay [4] is FLAG-D2SR (UniProt P14416). Described as above.
In assay [5] the target is D2LR-RLuc (UniProt P14416). The assay is described as follows: FRET or BRET; saturation BRET1 in living HEK 293T cells; fixed amount of RLuc donor plasmid, increasing amounts of YFP acceptor plasmid; 5 µM h-coelenterazine; ratio 530/480 nm, corrected for donor alone.
Assay [6] addresses D2LR-mCherry (UniProt P14416). The assay is described as follows: FRET or BRET; FRET in living HeLa cells in a plate reader; MOR-YFP donor, mCherry acceptor; ratio of donor-acceptor channel to donor-donor channel.

No constants are given. Whether binding was seen depends on the method and setting. Binding seen in cells or lysates may run through a third protein. Some entries that bind do so weakly or less than the wild type.

With “D2LR-YFP (from UniProt P14416 1-443) (receptor)”, the binding result in assay [1] is “binds”.

As to “MOR-YFP (in HEK 293T cells) (from UniProt P35372 1-400) (receptor)”, the binding result in assay [2] is listed as “no binding”; in assay [3] it was “binds”; in assay [4] it was “binds”; in assay [5], “binds”.

As to “MOR-YFP (in HeLa cells) (from UniProt P35372 1-400) (receptor)”, the binding entry in assay [6] is “binds”.
